In patent US20240287169A1 (AULOS BIOSCIENCE, published 2024):

Molecular target: T1, human IL-2 dimer receptor (CD122/CD132) on HEK-293 reporter cells (human, UniProt P14784 27-551; P31785 23-369)
T1 sequence (looked up) 1: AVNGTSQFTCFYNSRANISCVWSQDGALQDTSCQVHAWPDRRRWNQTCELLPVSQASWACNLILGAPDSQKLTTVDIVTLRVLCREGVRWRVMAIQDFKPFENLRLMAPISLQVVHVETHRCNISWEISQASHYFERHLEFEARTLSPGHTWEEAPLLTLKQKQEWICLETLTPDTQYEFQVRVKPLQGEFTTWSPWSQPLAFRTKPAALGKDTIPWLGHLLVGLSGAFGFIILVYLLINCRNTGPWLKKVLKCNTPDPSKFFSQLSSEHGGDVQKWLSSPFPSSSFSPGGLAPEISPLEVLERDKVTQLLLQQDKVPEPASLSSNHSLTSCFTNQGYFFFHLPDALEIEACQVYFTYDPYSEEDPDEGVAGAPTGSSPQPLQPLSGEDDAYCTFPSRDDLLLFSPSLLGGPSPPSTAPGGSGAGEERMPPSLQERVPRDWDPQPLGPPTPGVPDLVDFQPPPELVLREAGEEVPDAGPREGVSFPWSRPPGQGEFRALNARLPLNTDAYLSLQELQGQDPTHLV
T1 sequence (looked up) 2: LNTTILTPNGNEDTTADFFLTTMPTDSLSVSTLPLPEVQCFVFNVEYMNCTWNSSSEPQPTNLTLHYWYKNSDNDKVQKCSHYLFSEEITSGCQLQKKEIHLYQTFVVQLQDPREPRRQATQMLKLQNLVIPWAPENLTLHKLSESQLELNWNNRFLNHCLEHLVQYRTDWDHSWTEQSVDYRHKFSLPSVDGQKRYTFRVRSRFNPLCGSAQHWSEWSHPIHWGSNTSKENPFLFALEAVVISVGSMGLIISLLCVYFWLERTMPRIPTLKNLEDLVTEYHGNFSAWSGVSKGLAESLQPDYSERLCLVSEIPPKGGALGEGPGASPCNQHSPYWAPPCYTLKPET
Assay: cell-based or functional assay

B1: Non-alpha-IL-2 (naIL-2, hIL-2/hCD25 conjugate) (other, human)
chain: ELCDDDPPEIPHATFKAMAYKEGTMLNCECKRGFRRIKSGSLYMLCTGNSSHSSWDNQCQCTSSATRNTTKQVTPQPEEQKERKTTEMQSPMQPVDQASLPGHCREPPPWENEATERIYHFVVGQMVYYQCVQGYRALHRGPAESVCKMTHGKTRWTQPQLICTGEMETSQFPGEEKPQASPEGRPESETSCLVTTTDFQIQTEMAATMETSIFTTEYQGGGGSTRGGGGSTGGGGSGGGGSS[skipping about 150 residues]HHHHHHHH
EC50 (SEAP reporter, Abs. 620nM): 0.097 nM
